Source: PubChem BioAssay AID463173 (ICCB-Longwood Screening Facility, Harvard Medical School, 2010)
In all, about 52,000 compounds went through this assay and about 4,300 (8.3%) were called active. Rule as the data show it: active = survival mostly below about 52% (no sharp cut-off); inactive = mostly above about 56%. The list shows a part of the results.

Test system: DeltatarO mutant
Assay: S. aureus survival, RN4220 and DeltatarO strains – OD600, teichoic acid synthesis inhibitors, primary screen (AID 463173)
Settings: S. aureus RN4220 wild type/DeltatarO growth, OD600, 18 h, active compounds read low, screened at 18.75 µg/mL (by protocol)

| Structure (SMILES) | survival |
| --- | --- |
| Cc1ccc(NC(=O)c2ccco2)cc1NC(=O)CSc1ncnc2sc3c(c12)CCC3 | inactive: 54% |
| COc1ccccc1CNC(=O)Cc1csc2nc(-c3ccc(F)cc3)cn12 | inactive: 79% |
| CCc1cc2c(cc3c(=O)n(CC(=O)NC(C)c4ccccc4)ncn32)s1 (stereo not given) | inactive: 78% |
| O=S(=O)(c1ccc(Cl)cc1)c1nc(-c2cccs2)oc1N1CCCCC1 | active: 45% |
| Cc1cc(C)nc(-n2nc(C)c3c2N(Cc2ccccc2F)C(=O)CC3c2ccc(Cl)cc2)n1 (stereo not given) | inactive: 100% |
| CCOC(=O)c1sc2ccccc2c1S(=O)(=O)NCc1ccccc1OC | inactive: 95% |
| CCc1ccccc1NC(=O)C1CCN(S(=O)(=O)c2cn(C)cn2)CC1 | inactive: 93% |
| Cc1cc(Nc2ccc(Br)cc2)nc(C)n1 | inactive: 51% |
| Cc1cccc(C)c1-n1ncc(C(=O)NCCCN2CCC(C)CC2)c1C1CCN(C(=O)OC(C)(C)C)CC1 | inactive: 91% |
| CCC1CN(C(=O)N2CCC(C(=O)NCCc3ccc(OC)cc3OC)CC2)c2cc(C)ccc2O1 (stereo not given) | inactive: 93% |
| Cc1cccc(OCc2nc(CC(=O)Nc3ccc(Cl)cc3)cs2)c1 | inactive: 82% |
| COc1cccc(CSc2nc3ccncc3n2CC(=O)Nc2ccc(OC)c(OC)c2OC)c1 | inactive: 98% |
| CCOC(=O)c1cnc2c(ccc3ccccc32)c1Nc1ccc(C(C)=O)cc1 | active: 1% |
| COc1cc(C)ccc1OCCSc1nc2ccc(NC(=O)c3ccco3)cc2s1 | inactive: 62% |
| COc1ccc(C2CC(=O)c3cc(-c4nc(-c5cccc([N+](=O)[O-])c5)cs4)c(=O)n(-c4ccccc4)c3C2)cc1 (stereo not given) | inactive: 48% |
| CCN1c2ccccc2-c2nc(SCC(=O)Nc3cccc(C)c3C)ncc2S1(=O)=O | inactive: 101% |
| COc1ccc(CNC(=O)CCNS(=O)(=O)c2ccc3c(c2)oc(=O)n3C)cc1 | inactive: 92% |
| Cc1ccccc1C(=O)Nc1cc(C)c(O)c(-c2nc3ccccc3o2)c1 | inactive: 93% |
| CCC1CN(C(=O)Nc2ccccc2F)c2cc(C)ccc2O1 (stereo not given) | inactive: 59% |
| CCOc1ccc(-c2nc(Cn3c(=O)cc(C)c4c(C)nn(-c5ccccc5)c43)c(C)o2)cc1 | inactive: 55% |
| CC1CCN(CC2CCN(C(=O)NCc3ccccc3)CC2)CC1 | inactive: 95% |
| CCCCCCn1nnc2sc(-c3ccccc3)cc2c1=O | inactive: 106% |
| CCc1ccc(NC(=O)CN2C(=O)CSC2=O)cc1 | inactive: 76% |
| Cc1ccc(C(=O)c2cn(Cc3cccc(Cl)c3)c3nc(C)ccc3c2=O)cc1 | active: 60% |
| CCCCNC(=O)c1nn(C)c2c1CSc1ccccc1-2 | inactive: 72% |
